In patent US20240043566A1 (SUZHOU TRANSCENTA THERAPEUTICS, published 2024):

Biological target: human TGFβ1 (Sino Biological, 10804-HNAC) (human, UniProt P01137 part only)
Test: cell-based or functional assay

UniProt P01137, sequence (P01137 279-390 limits assumed): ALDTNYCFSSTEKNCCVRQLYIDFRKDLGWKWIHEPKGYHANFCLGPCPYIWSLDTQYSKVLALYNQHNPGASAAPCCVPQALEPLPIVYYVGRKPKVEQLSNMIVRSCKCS

B1: AM4B6-hIgG1-TGFβRII′ (other)
heavy: QVQLVQSGAEVKKPGASVKVSCKASGYVFTDYYMNWVRQAPGQSLEWMGDINPNNAETLYNHKFKGRVTVTVDKSISTAYMELSRLRSDDTAVYYCVKWGDGPFAYWGQGTLVTVSS[here human IgG1 constant region without letters]GGGGSGGGGSGGGGSGGGGSGGAVKFPQLCKFCDVRFSTCDNQKSCMSNCSITSICEKPQEVCVAVWRKNDENITLETVCHDPKLPYHDFILEDAASPKCIMKEKKKPGETFFMCSCSSDECNDNIIFSEEYNTSNPD
light: DIQMTQSPSSLSASVGDRVTITCKASQNVGAAVAWYQQKPGKAPKLLIYSVSDRYTGVPSRFSGSGSGTDFTLTISSLQPEDIATYYCQQYSNYPTFGQGTKLEIKRTVAAPSVFIFPPSDEQLKSGTASVVCLLNNFYPREAKVQWKVDNALQSGNSQESVTEQDSKDSTYSLSSTLTLSKADYEKHKVYACEVTHQGLSSPVTKSFNRGEC
IC50, TGFβ reporter HEK-293 cell line (luciferase), 10 ng/ml human TGFβ1: 0.35 nM
